Data on one molecule can be found in US20160304617A1 (ASANA BIOSCIENCES, published 2016).

The experiment concerns the target T1, Human 5T4 full length (human, UniProt Q13641 32-420).
T1 sequence (looked up): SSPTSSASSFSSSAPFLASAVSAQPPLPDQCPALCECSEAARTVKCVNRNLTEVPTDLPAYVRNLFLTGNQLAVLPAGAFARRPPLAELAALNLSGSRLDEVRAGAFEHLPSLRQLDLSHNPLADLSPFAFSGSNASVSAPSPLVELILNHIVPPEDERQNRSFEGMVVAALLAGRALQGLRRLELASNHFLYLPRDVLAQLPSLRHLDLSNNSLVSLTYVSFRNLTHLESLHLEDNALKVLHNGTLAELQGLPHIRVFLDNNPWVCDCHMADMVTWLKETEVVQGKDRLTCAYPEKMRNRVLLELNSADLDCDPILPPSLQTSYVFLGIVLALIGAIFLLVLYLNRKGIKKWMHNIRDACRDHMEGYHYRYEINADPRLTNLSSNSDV
Description: cell-based or functional assay.

B1: anti-5T4 hu-scFv-Fc-HPRN (Fc fusion)
chain: EVQLVESGGGLVQPGGSLRLSCKASGYSFTGYYMHWVRQAPGKGLEWVSRINPNNGVTLYNQKFKDRFTISRDNSKNTLYLQMNSLRAEDTAVYYCARSTMITNYVMDYWGQGTLVTVSSGGGGSGGGGSGGGGSGGGGSGGGGSGGGGSDIQMTQSPSSLSASVGDRVTITCKASQSVSNDVAWYQQKPGKAPKLLIYYTSSRYAGVPSRFSGSGSGTDFTLTISSLQPEDFATYYCQQDYNSPPTFGGGTKLEIKASTC[human IgG1 Fc with changes not listed]GCSGGPGGGSKESRAKKFQRQHMDSDSSPSSSSTYCNLMMCCRNMTQGRCKPVNTFVHEPLVDVQNVCFQEKVTCKNGQGNCYKSNSSMHITDCRLTNGSRYPNCAYRTSPKERHIIVACGGSPYVPVHFDASVEDST
B1: the “IC50 of cytotoxicity, A431 cells” value worked out at 38 µg/mL; the “IC50 of cytotoxicity, A431 cells (using tetramer MW)” value was 135 nM; the “IC50 of cytotoxicity, SKOV3 cells” value worked out at 27 µg/mL; the “IC50 of cytotoxicity, SKOV3 cells (using tetramer MW)” value turned out to be 92 nM.
